Measurements taken from patent publication US4248863A, “Antibiotics saframycins A, B, C, D and E and process for producing the same” (priority 1977, dated 1981).

Tested on: cultured cells of L 1210 in mouse leukemia
Experiment: Inhibition of growth of cultured cells of L 1210 mouse leukemia
Conditions: for IC100: Mus musculus, L1210, read-out: concentration that can completely inhibit the cell growth; for concentration that can completely inhibit the cell growth: cultured cells of L 1210 in mouse leukemia

| Structure (SMILES) | IC100 [µg/mL] | concentration that can completely inhibit the cell growth [µg/mL] |
| --- | --- | --- |
| COC1=C(C)C(=O)C2=C(C1=O)C1C3CC4=C(C(=O)C(OC)=C(C)C4=O)C(CNC(=O)C(C)=O)N3CC(C2)N1C (centres unmarked) [saframycin B] | 5 | – |
| COC1=C(C)C(=O)C2=C(C1=O)C1C3CC4=C(C(=O)C(OC)=C(C)C4=O)C(CNC(=O)C(C)=O)N3C(C#N)C(C2)N1C (centres unmarked) [saframycin A] | 0.02 | – |
| COC1=C(C)C(=O)C2=C(C1=O)[C@H](CNC(=O)C(C)=O)N1C[C@H]3C(=O)c4c(O)c(C)c(OC)c(O)c4[C@@H]([C@@H]1C2)N3C [saframycin D] | – | 20 |
| COC1=C(C)C(=O)C2=C(C1=O)[C@H](CNC(=O)C(C)=O)N1C[C@@H]3[C@@H](O)c4c(O)c(C)c(OC)c(O)c4[C@H]([C@@H]1C2)N3C [saframycin E] | – | 20 |
| COC1=C(C)C(=O)C2=C(C1=O)[C@@H]1[C@@H]3CC4=C(C(=O)C(OC)=C(C)C4=O)[C@H](CNC(=O)C(C)=O)N3C[C@H]([C@H]2OC)N1C [saframycin C] | – | 20 |
